# Assay results taken from the supplement of paper PMC8728848.
# The list shows a part of the results.
# Key:
# Assay in all cases: glycan array binding signal (z-score within array); higher = stronger binding
# Conditions in all cases: glycan notation: IUPAC condensed, linker removed
# [1] = biological target: Neu5Ac(a2-6)Gal(b1-4)GlcNAc(b1-6)GalNAc
# Outline: (§1)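 Glycan array data came from 3228 arrays in the Consortium for Functional Glycomics database, and only arrays with an available protein sequence were kept. Glycan names were put into IUPAC-condensed notation, and columns mapping to the same glycan were averaged. The binding signal is a within-array Z-score, averaged across arrays of one protein sequence run at different concentrations or buffers and across linkers. A negative Z-score can be read as non-binding.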
# [2] = biological target: Neu5Ac(a2-6)Gal(b1-4)GlcNAc(b1-6)[Gal(b1-3)GlcNAc(b1-3)]Gal(b1-4)Glc
# Outline: as §1
# [3] = biological target: Neu5Ac(a2-6)Gal(b1-4)GlcNAc(b1-6)[Gal(b1-3)]GalNAc
# Outline: as §1
# [4] = biological target: Neu5Ac(a2-6)Gal(b1-4)GlcNAc6S
# Outline: as §1
# Neu5Ac(a2-6)GalNAc = biological target: Neu5Ac(a2-6)GalNAc
# Outline: as §1
# [5] = biological target: Neu5Ac(a2-6)GalNAc(b1-4)GlcNAc
# Outline: as §1
# [6] = biological target: Neu5Ac(a2-6)GalNAc(b1-4)GlcNAc6S
# Outline: as §1
# [7] = biological target: Neu5Ac(a2-6)GlcNAc(b1-4)GlcNAc
# Outline: as §1
# [8] = biological target: Neu5Ac(a2-6)GlcNAc(b1-4)GlcNAc(b1-4)GlcNAc
# Outline: as §1
# Neu5Ac(a2-8)Neu5Ac = biological target: Neu5Ac(a2-8)Neu5Ac
# Outline: as §1
# [9] = biological target: Neu5Ac(a2-8)Neu5Ac(a2-3)Gal(b1-3)GalNAc(b1-4)[Neu5Ac(a2-3)]Gal(b1-4)Glc
# Outline: as §1
# [10] = biological target: Neu5Ac(a2-8)Neu5Ac(a2-3)Gal(b1-3)GalNAc(b1-4)[Neu5Ac(a2-8)Neu5Ac(a2-3)]Gal(b1-4)Glc
# Outline: as §1
# [11] = biological target: Neu5Ac(a2-8)Neu5Ac(a2-3)Gal(b1-4)Glc
# Outline: as §1
# [12] = biological target: Neu5Ac(a2-8)Neu5Ac(a2-3)Gal(b1-4)GlcNAc
# Outline: as §1
# [13] = biological target: Neu5Ac(a2-8)Neu5Ac(a2-3)[Gal(b1-3)GalNAc(b1-4)]Gal(b1-4)Glc
# Outline: as §1
# [14] = biological target: Neu5Ac(a2-8)Neu5Ac(a2-3)[GalNAc(b1-4)]Gal(b1-4)Glc
# Outline: as §1
# [15] = biological target: Neu5Ac(a2-8)Neu5Ac(a2-8)Neu5Ac
# Outline: as §1
# [16] = biological target: Neu5Ac(a2-8)Neu5Ac(a2-8)Neu5Ac(a2-3)Gal(b1-4)Glc
# Outline: as §1
# [17] = biological target: Neu5Ac(a2-8)Neu5Ac(a2-8)Neu5Ac(a2-3)[Gal(b1-3)GalNAc(b1-4)]Gal(b1-4)Glc
# Outline: as §1
# [18] = biological target: Neu5Ac(a2-8)Neu5Ac(a2-8)Neu5Ac(a2-3)[GalNAc(b1-4)]Gal(b1-4)Glc
# Outline: as §1
# [19] = biological target: Neu5Ac(a2-8)Neu5Ac(a2-8)Neu5Ac(a2-8)Neu5Ac(a2-3)[GalNAc(b1-4)]Gal(b1-4)Glc
# Outline: as §1
# [20] = biological target: Neu5Ac(a2-8)Neu5Gc(a2-3)Gal(b1-4)GlcNAc
# Outline: as §1
# Neu5Ac(b1-6)GalNAc = biological target: Neu5Ac(b1-6)GalNAc
# Outline: as §1
# [21] = biological target: Neu5Ac(b2-6)Gal(b1-4)GlcNAc
# Outline: as §1
# Neu5Ac(b2-6)GalNAc = biological target: Neu5Ac(b2-6)GalNAc
# Outline: as §1
# [22] = biological target: Neu5Ac9Ac(a2-3)Gal(b1-3)GlcNAc
# Outline: as §1
# [23] = biological target: Neu5Ac9Ac(a2-3)Gal(b1-4)GlcNAc
# Outline: as §1
# [24] = biological target: Neu5Ac9Ac(a2-6)Gal(b1-4)GlcNAc
# Outline: as §1
# [25] = biological target: Neu5Gc(a2-3)Gal(b1-3)GlcNAc
# Outline: as §1
# [26] = biological target: Neu5Gc(a2-3)Gal(b1-3)[Fuc(a1-4)]GlcNAc
# Outline: as §1
# Neu5Gc(a2-3)Gal(b1-4)Glc = biological target: Neu5Gc(a2-3)Gal(b1-4)Glc
# Outline: as §1
# [27] = biological target: Neu5Gc(a2-3)Gal(b1-4)GlcNAc
# Outline: as §1
# [28] = biological target: Neu5Gc(a2-3)Gal(b1-4)GlcNAc(b1-3)Gal(b1-4)GlcNAc(b1-2)Man(a1-3)[Neu5Gc(a2-3)Gal(b1-4)GlcNAc(b1-3)Gal(b1-4)GlcNAc(b1-2)Man(a1-6)]Man(b1-4)GlcNAc(b1-4)GlcNAc
# Outline: as §1
# [29] = biological target: Neu5Gc(a2-3)Gal(b1-4)[Fuc(a1-3)]GlcNAc
# Outline: as §1
# [30] = biological target: Neu5Gc(a2-6)Gal(b1-4)GlcNAc
# Outline: as §1
# Neu5Gc(a2-6)GalNAc = biological target: Neu5Gc(a2-6)GalNAc
# Outline: as §1
# [31] = biological target: Neu5Gc(a2-8)Neu5Ac(a2-3)Gal(b1-4)GlcNAc
# Outline: as §1
# [32] = biological target: Neu5Gc(a2-8)Neu5Gc(a2-3)Gal(b1-4)GlcNAc
# Outline: as §1
# [33] = biological target: Neu5Gc(a2-8)Neu5Gc(a2-3)Gal(b1-4)GlcNAc(b1-3)Gal(b1-4)GlcNAc
# Outline: as §1
# [34] = biological target: Neu5Gc(a2-8)Neu5Gc(a2-6)Gal(b1-4)GlcNAc
# Outline: as §1
# [35] = biological target: Neu5Gc(b2-6)Gal(b1-4)GlcNAc
# Outline: as §1
binder,measurement,setting,value
"NPA (Narcissus pseudonarcissus), C0HM45 (protein) DNILYSGETLSPGEFLNNGRYVFIMQEDCNLVLYDVDKPIWATNTGGLDRRCHLSMQSDGNLVVYSPRNNPIWASNTGGENGNYVCVLQKDRNVVIYGTARWATGTNIH",glycan array binding signal (z-score),[1],-0.137
same,glycan array binding signal (z-score),[2],-0.151
same,glycan array binding signal (z-score),[3],-0.129
same,glycan array binding signal (z-score),[4],-0.14
same,glycan array binding signal (z-score),Neu5Ac(a2-6)GalNAc,-0.163
same,glycan array binding signal (z-score),[5],-0.149
same,glycan array binding signal (z-score),[6],-0.141
same,glycan array binding signal (z-score),[7],-0.143
same,glycan array binding signal (z-score),[8],-0.129
same,glycan array binding signal (z-score),Neu5Ac(a2-8)Neu5Ac,-0.151
same,glycan array binding signal (z-score),[9],-0.144
same,glycan array binding signal (z-score),[10],-0.14
same,glycan array binding signal (z-score),[11],-0.16
same,glycan array binding signal (z-score),[12],-0.155
same,glycan array binding signal (z-score),[13],-0.149
same,glycan array binding signal (z-score),[14],-0.15
same,glycan array binding signal (z-score),[15],-0.156
same,glycan array binding signal (z-score),[16],-0.151
same,glycan array binding signal (z-score),[17],-0.128
same,glycan array binding signal (z-score),[18],-0.139
same,glycan array binding signal (z-score),[19],-0.141
same,glycan array binding signal (z-score),[20],-0.15
same,glycan array binding signal (z-score),Neu5Ac(b1-6)GalNAc,-0.207
same,glycan array binding signal (z-score),[21],-0.154
same,glycan array binding signal (z-score),Neu5Ac(b2-6)GalNAc,-0.149
same,glycan array binding signal (z-score),[22],-0.145
same,glycan array binding signal (z-score),[23],-0.129
same,glycan array binding signal (z-score),[24],-0.156
same,glycan array binding signal (z-score),[25],-0.157
same,glycan array binding signal (z-score),[26],-0.149
same,glycan array binding signal (z-score),Neu5Gc(a2-3)Gal(b1-4)Glc,-0.148
same,glycan array binding signal (z-score),[27],-0.151
same,glycan array binding signal (z-score),[28],-0.13
same,glycan array binding signal (z-score),[29],-0.155
same,glycan array binding signal (z-score),[30],-0.145
same,glycan array binding signal (z-score),Neu5Gc(a2-6)GalNAc,-0.147
same,glycan array binding signal (z-score),[31],-0.145
same,glycan array binding signal (z-score),[32],-0.149
same,glycan array binding signal (z-score),[33],-0.146
same,glycan array binding signal (z-score),[34],-0.14
same,glycan array binding signal (z-score),[35],-0.147
